# According to the supplement of paper PMC11417369:
# ± gives the standard deviation of the averaged measurements. The list shows a part of the results.
# System: PfAP2-LT AP2 domain (GST-tagged)
# Test: gcPBM binding intensity (ln(normalized median fluorescence intensity)); higher = stronger DNA binding
# How it was run: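 Using an Agilent 4 × 180k array, primer-extended double-stranded 36-bp intergenic genomic probes and negative controls were exposed for 1 h to GST-fused P. falciparum DNA-binding domains expressed in E. coli. Binding was carried out in 1× PBS with 1% milk, 0.2 mg/ml BSA, 0.5% salmon testes DNA and 0.03% Triton X-100, and protein was detected with Alexa488 anti-GST antibody and a 488 nm scan. Binding intensity is the highest Masliner-normalised natural-log median intensity across replicate spots of either probe orientation.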
row,Sequence,gcPBM binding intensity (ln)
1,AGATGCCAAGTATAAAGTACATATCAAAATGTATAT [XGTACX_site456],8.96 ± 0.42
2,GAACAAAATTTTATATGTACATAATATTTATATATA [XGTACX_site3667],8.64 ± 0.37
3,AAAATTAATGTTGGTTGTACAAAAATTAAATATGGT [XGTACX_site66],9.11 ± 0.46
4,AGGAGGATAGTTCACAGTACCCAGTAACTCTACGAG [XGTACX_site2008],8.8 ± 0.68
5,GTACAAAGGACTATACATAGAAAAATATATATATAT [XGTACX_negctrl_site164],9.32 ± 0.21
6,AAAACTTTTAAAATTTTGTATTCATTCCTTCAACAA [GTGCAC_negctrl_site697],8.41 ± 0.5
7,TTTATAATTCCATAATGTACAAATAAAATAAAAAAT [XGTACX_site663],8.62 ± 0.43
8,TATATTCAAAATGGTACACACAATATTTAATTGTGC [CACACA_site2631],8.89 ± 0.42
9,TGACATATAAAATATTCACACACAAGTTATAGTTCT [CACACA_site9209],9.13 ± 0.47
10,ACATTTTCTTATAAATGTACATATATATTATTATAT [XGTACX_site4404],8.82 ± 0.49
11,GTACAAAATTGACAAGTGCAAAAATTAAAAGCAAGA [GTGCAC_site9838],9.13 ± 0.52
12,AAAGTATATAGGATACGTACATACATAAATAAATAA [XGTACX_site8216],9.04 ± 0.42
13,ATATATATATAAATATGTACATATATTTATTTCTTT [XGTACX_site3784],8.8 ± 0.46
14,GTGTGAGCACATTCGGGAGAGTTTTTTTTTTTTTTT [CACACA_negctrl_site1776],8.85 ± 0.37
15,TATAAAAATAAGCACACACACAAATATAGATTTATT [CACACA_site6558],9.79 ± 0.3
16,ATATATTCTATATATACATGCATATATATTATATGT [TGCATGCA_site185],8.89 ± 0.46
17,GTTAAATGAAAATATGTACACACTTGAAAATTTTTA [CACACA_site2924],8.76 ± 0.37
18,TGAATAAATATGCAGCGTACATAATCCTCTTAAAAT [XGTACX_site8462],8.85 ± 0.32
19,ATGCAACTATATATATATATTATATGTATGAATAAT [XGTACX_negctrl_site434],8.97 ± 0.28
20,TTAATAGAAATACGTGCACACTAAAGGGAAAACAAT [CACACA_site4923],9.32 ± 0.38
21,ACAAGTATTAATTACACACTCAAAAAGAAAAAACAA [CACACA_site2281],8.85 ± 0.49
22,AAAATACGAATATAAACATGCACCATATAGAACAAA [TGCATGCA_site925],9.17 ± 0.38
23,TTTTTTTTTTTTTTTACACACTGCATACAAGAAAAA [CACACA_site5642],8.52 ± 0.23
24,TAAAATAAAATAAGTAGTACATATATAATTATATAT [XGTACX_site6733],8.72 ± 0.49
25,TACAAATATAGATGCACACACATATACATACCTATA [CACACA_site7094],9.39 ± 0.29
26,TTTTTACAAAAAAAAAAAAAAAAAATAAAAATAAAT [CACACA_negctrl_site1738],8.21 ± 0.47
27,GACAACGTTTCAATGTGTACATATTTATAATATATA [XGTACX_site2427],8.87 ± 0.28
28,TATATATATATATATACATGCATTTTTGTTTGCTTA [TGCATGCA_site256],9.92 ± 0.13

row,Sequence,gcPBM binding intensity (ln)
1,TTTTTTTTTTCTCCTGCATGCAGCATTTATATATTA [TGCATGCA_site390],9.31 ± 0.38
2,ATTGAAAAACCGTTTAGTACATATCATCACGTTTGT [XGTACX_site1295],8.91 ± 0.52
3,TATATATATATATGTACACACATCAATCATATTAAC [CACACA_site1946],9.52 ± 0.4
4,ATATATCATGCCAAGGGTACAAATGTGTAGTTGAAA [XGTACX_site2820],9.07 ± 0.43
5,TTTTTTAAATATTATTTTTATGAGTAAATATATTAT [GTGCAC_negctrl_site277],8.27 ± 0.52
6,TGAACATCATTTTTATGTACACACACATATACGTTG [XGTACX_site3864],9.54 ± 0.54
7,GACGTGGAAAAAAAAACACACACAAAAAAAAAAAAA [CACACA_site9324],9.26 ± 0.64
8,AAAACAAACAAAAAAAAAAAAAAAAATATCAATCTA [TGCATGCA_negctrl_site203],8.36 ± 0.67
9,TAATTACCATATGGTACACACATATTTATAGGTATA [CACACA_site7603],9.03 ± 0.31
10,GATAAAATAATATATAGTACTTTTTTAAAATAAATA [XGTACX_site522],8.27 ± 0.57
11,ACGTATAATATGTACACACACATATATACCAAAAAA [CACACA_site4661],9.5 ± 0.35
12,CGCGCACCCAGACACACACACACACCCATATATATA [CACACA_site2203],9.96 ± 0.25
13,GAAAAAAAAAAAAAAAGTACATTCTCTATTTCATGT [XGTACX_site3209],8.51 ± 0.42
14,ATAAATTTAAATAGGAGTACACAGCTTTATATTTTG [XGTACX_site4176],8.67 ± 0.41
15,TATAAAACACACACACATATATATATATATTTATAT [TGCATGCA_negctrl_site48],9.69 ± 0.17
16,AATTTTAAATTTAATTTACACACTTTTCATAGCATT [CACACA_site9264],8.94 ± 0.41
17,ATTTACAAAAATTTTGTATAAAGGGATTTTAAAATG [TGCATGCA_negctrl_site350],8.35 ± 0.4
18,ATATTTTTTTTTTTCACACACATTTAGATTGTATTA [CACACA_site3137],9.33 ± 0.52
19,AAAAAAAAAAAAAATTGTACGGATTCTTTTTTTTTT [XGTACX_site2898],8.56 ± 0.26
20,TTGTATAAAAAACTAAAAAATATAAAATAATAAGTG [CACACA_negctrl_site1704],8.56 ± 0.49
21,AACATTATCAAATAAACCATAAATCAATTCAATATG [CACACA_negctrl_site696],8.71 ± 0.45
22,AAACGTTTATTTTATTGTACATATGAAAAATGCTTC [XGTACX_site6896],8.63 ± 0.44
23,GAAATATTGAAACACACACACAAACATATATATATA [CACACA_site1911],10.1 ± 0.26
24,TTTATAGTTTTAAACAAAGTAATACAAATGTATATA [CACACA_negctrl_site1716],8.32 ± 0.47
25,TATAAAAAAAATAAAATAAAATAAAATAGAAAAATA [TGCATGCA_negctrl_site109],8.53 ± 0.64
26,CGTAATAATTAATGTTGTACCCACCAAAAAAATTAA [XGTACX_site8592],8.67 ± 0.41
27,ATTACATTTTTGTTTTGTACATATATTTTATAAACA [XGTACX_site494],8.76 ± 0.42
